Experimental data: the supplement of paper PMC10670038
Structures can show the parent of a compound that is named as a salt. ± gives the standard deviation of the averaged measurements. Whole data set: some 2,000 compounds, median “relative cell viability vs DMSO, compound alone” near 1.1, cut for the lowest 2% near 0.29. Some of the results follow.

System: TE10
Assay: relative cell viability vs DMSO, compound alone (fraction); TE10 is an esophageal squamous carcinoma line; higher = less cytotoxic
Settings: 2 µM; 48 h
Protocol: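 TE10 ESCC cells (1,000/well, 384-well plates) were treated with Selleck bioactive library compounds at 2 uM alone for 48 h. Viability was read by CellTiter-Glo and expressed relative to DMSO wells. Two technical replicates (A, B).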

Compound	relative cell viability
COc1ccc(C2=N[C@@H](c3ccc(Cl)cc3)[C@@H](c3ccc(Cl)cc3)N2C(=O)N2CCNC(=O)C2)c(OC(C)C)c1 [Nutlin-3]	1.21 ± 0.022
CN/C(=N\CCSCc1nc[nH]c1C)NC#N [Cimetidine]	1.01 ± 0.019
COc1cc2ncnc(Nc3cccc(Cl)c3)c2cc1OC [AG-1478 (Tyrphostin AG-1478)]	1.06 ± 0.011
O=c1oc2cc(O)ccc2s1 [Tioxolone]	1.08 ± 0.018
CS(=O)(=O)c1ccc(-c2nnc(/C=C/c3nnc(-c4ccc(C#N)cc4)o3)n2-c2ccccc2Cl)nc1	1.06 ± 0.013
c1coc(CNc2ncnc3[nH]cnc23)c1 [Kinetin]	0.914 ± 0.12
C[C@]12CCC3=C4CCC(=O)C=C4CC[C@H]3[C@@H]1CC[C@@]2(O)CC#N [Dienogest]	1.19 ± 0.024
CCOC(=O)[C@H](CCc1ccccc1)N[C@@H](C)C(=O)N1C(=O)N(C)C[C@H]1C(=O)O [Imidapril HCl]	1.038 ± 0.0027
C[C@@H]1C[C@H]2[C@@H]3CCC4=CC(=O)C=C[C@]4(C)[C@@]3(Cl)[C@@H](O)C[C@]2(C)[C@@]1(OC(=O)c1ccco1)C(=O)CCl [Mometasone furoate]	0.95932 ± 0.0006
Cc1ccc(NC(=O)C2(c3ccc4c(c3)OC(F)(F)O4)CC2)nc1-c1cccc(C(=O)O)c1 [VX-809 (Lumacaftor)]	0.817 ± 0.014
Cn1cc(/C=C2\C(=O)Nc3cccnc32)c2ccccc21	1.076 ± 0.0071
OCCOc1ccc(/C(=C(/CCCl)c2ccccc2)c2ccccc2)cc1 [Ospemifene]	1.1 ± 0.011
CC(C)OC(=O)C(C)(C)Oc1ccc(C(=O)c2ccc(Cl)cc2)cc1 [Fenofibrate]	1.02 ± 0.026
CCn1c(-c2nonc2N)nc2c(C#CC(C)(C)O)ncc(OC[C@H]3CCCNC3)c21	0.77315 ± 0.00057
O=S(=O)(O)Oc1ccc(C(c2ccc(OS(=O)(=O)O)cc2)c2ccccn2)cc1 [Sodium Picosulfate]	1.05 ± 0.029
CN1C(=O)C(Cc2c[nH]c3ccccc23)NC1=S (configuration not stated) [Necrostatin-1]	1 ± 0.073
Cc1cc2c(s1)Nc1ccccc1N=C2N1CCN(C)CC1 [Olanzapine]	1.1 ± 0.03
CC(=NNC(=S)N1CCC1)c1ccccn1	0.489 ± 0.042
Cc1cn(-c2cc(NC(=O)c3ccc(C)c(Nc4nccc(-c5cccnc5)n4)c3)cc(C(F)(F)F)c2)cn1 [Nilotinib (AMN-107)]	1.18 ± 0.14
NC(=O)c1ccc(-c2nc(-c3ccccn3)c(-c3ccc4c(c3)OCO4)[nH]2)cc1	1.3 ± 0.069
C[C@@H](O[C@H]1OCCN(Cc2n[nH]c(=O)[nH]2)[C@H]1c1ccc(F)cc1)c1cc(C(F)(F)F)cc(C(F)(F)F)c1 [Aprepitant]	1.146 ± 0.011
CCCNC(=O)Nc1ccc(Oc2ncnc3cc(OC)c(OC)cc23)cc1Cl	0.845 ± 0.029
CC(=O)c1c(C)c2cnc(Nc3ccc(N4CCNCC4)cn3)nc2n(C2CCCC2)c1=O	1.116 ± 0.0015
CNC(=O)c1cc(Oc2ccc3nc(N[C@@H]4CCCC[C@H]4O)sc3c2)ccn1	0.956 ± 0.081
CC(C)(C)c1ccc(S(=O)(=O)/C=C/C#N)cc1	0.0635 ± 0.0029
CC(=O)O[C@H]1C(=O)[C@@]2(C)[C@H]([C@H](OC(=O)c3ccccc3)[C@]3(O)C[C@H](OC(=O)[C@H](O)[C@@H](NC(=O)c4ccccc4)c4ccccc4)C(C)=C1C3(C)C)[C@]1(OC(C)=O)CO[C@@H]1C[C@@H]2O [Paclitaxel]	0.72 ± 0.02

Compound	relative cell viability
NC(=O)c1cccc(-c2cccc(OC(=O)NC3CCCCC3)c2)c1	1.17 ± 0.024
CN1CCC(Nc2nc(Nc3ccc(Oc4ccccc4)cc3)c3c(=O)[nH]cc(Br)c3n2)CC1	1.03 ± 0.017
CN(C(Cc1ccc(OS(=O)(=O)c2cccc3cnccc23)cc1)C(=O)N1CCN(c2ccccc2)CC1)S(=O)(=O)c1cccc2cnccc12 (configuration not stated)	1.05 ± 0.03
CCCN(CCC)CCc1cccc2c1CC(=O)N2 [Ropinirole HCl]	1.006 ± 0.008
COc1cccc2c1C(=O)c1c(O)c3c(c(O)c1C2=O)C[C@@](O)(C(=O)CO)C[C@@H]3O[C@H]1C[C@H](N)[C@@H](O)[C@H](C)O1 [Epirubicin HCl]	0.323 ± 0.0051
Nc1ccc(-c2ccc3ncc4ccc(=O)n(-c5cccc(C(F)(F)F)c5)c4c3c2)cn1 [Torin 2]	0.378 ± 0.014
CSc1nc2cc(Cl)c(Oc3cccc(Cl)c3Cl)cc2[nH]1 [Triclabendazole]	1.15 ± 0.087
Cc1cnc(-c2ccccc2C(C)C)nc1NCc1ccc(-n2ccnn2)cc1	1.14 ± 0.037
CCCCCCCCCCCCCCCCn1cc[n+](Cc2ccccc2)c1C	0.618 ± 0.011
Cn1cnc2c(F)c(Nc3ccc(Br)cc3F)c(C(=O)NOCCO)cc21	0.842 ± 0.01
C#Cc1cccc(Nc2ncnc3cc(OCCOC)c(OCCO)cc23)c1	1.12 ± 0.028
COc1cc2nc(N3CCCC3)nc(NCCCCCN3CCCC3)c2cc1OC	1.036 ± 0.0072
NC(=O)c1cnccn1 [Pyrazinamide]	1.12 ± 0.02
Nc1nc(N)c(N=O)c(OCC2CCCCC2)n1	1.03 ± 0.023
Oc1ccc(-c2nc(-c3ccc(F)cc3)c(-c3ccncc3)[nH]2)cc1	1.31 ± 0.042
Cc1ccc(C(=O)Nc2ccc(CN3CCN(C)CC3)c(C(F)(F)F)c2)cc1C#Cc1cnc2[nH]ncc2c1	0.6 ± 0.011
Cc1ccc(-n2nc(C(C)(C)C)cc2NC(=O)NCc2cc(F)ccc2Oc2ccc3c(cnn3CCO)c2)cc1 [Pexmetinib (ARRY-614)]	1.095 ± 0.0039
C=C[C@H]1CN2CC[C@H]1C[C@H]2[C@H](O)c1ccnc2ccc(OC)cc12 [Quinine HCl Dihydrate]	0.965 ± 0.032
CC1(C)S[C@@H]2[C@H](NC(=O)[C@H](N)c3ccccc3)C(=O)N2[C@H]1C(=O)O [Ampicillin sodium]	1.11 ± 0.012
CC1(C)S[C@@H]2[C@H](NC(=O)[C@H](N)c3ccccc3)C(=O)N2[C@H]1C(=O)O [Ampicillin Trihydrate]	1.047 ± 0.0036
Cc1ccccc1C(C(=O)NC1CCCCC1)N(C(=O)Cn1ccnc1C)c1cccc(F)c1 (configuration not stated)	0.989 ± 0.22
O=C(O)c1cc(=O)[nH]c(=O)[nH]1 [Orotic acid (6-Carboxyuracil)]	1.14 ± 0.077
C[C@]12CCC(=O)C=C1[C@@H]1C[C@@H]1[C@H]1[C@@H]3[C@@H]4C[C@@H]4[C@@]4(CCC(=O)O4)[C@@]3(C)CC[C@@H]12 [Drospirenone]	1.05 ± 0.092
COc1ccc2cc([C@H](C)C(=O)O)ccc2c1 [Naproxen]	1.16 ± 0.057
Cc1ncc([N+](=O)[O-])n1CC(C)O (configuration not stated) [Secnidazole]	0.782 ± 0.072
OCCn1cc(-c2cnc3nnn(Cc4ccc5ncccc5c4)c3n2)cn1	1.18 ± 0.019

Compound	relative cell viability
CC/C(=C(\c1ccc(O)cc1)c1ccc(OCCNC)cc1)c1ccccc1 [Endoxifen HCl]	1.133 ± 0.011
Cc1ccc(S(=O)(=O)Cc2nc(-c3ccc(C(=O)NCc4cccnc4)cc3)oc2C)cc1	1.1 ± 0.036
COc1cccc2c1C(=O)c1c(O)c3c(c(O)c1C2=O)C[C@@](O)(C(C)=O)C[C@@H]3O[C@H]1C[C@H](N)[C@H](O)[C@H](C)O1 [Daunorubicin HCl]	0.328 ± 0.021
CNC(=O)c1cc(Oc2ccc(NC(=O)Nc3ccc(Cl)c(C(F)(F)F)c3)cc2)ccn1 [Sorafenib Tosylate]	1.14 ± 0.077
CNC(=O)c1cc(Oc2ccc(NC(=O)Nc3ccc(Cl)c(C(F)(F)F)c3)cc2)ccn1 [Sorafenib]	1.08 ± 0.016
CNC(=O)c1ccccc1Nc1cc(Nc2ccc(N3CCOCC3)cc2OC)ncc1C(F)(F)F	1.02 ± 0.04
NCCCC[C@@H]1NC(=O)[C@@H](Cc2ccc(O)cc2)NC(=O)[C@H](CC(=O)O)NC(=O)CNC(=O)[C@H](CCCN=C(N)N)NC1=O [Cyclo(RGDyK)]	1.04 ± 0.022
CN1C(CCl)Nc2cc(Cl)c(S(N)(=O)=O)cc2S1(=O)=O (configuration not stated) [Methyclothiazide]	1.16 ± 0.026
OCc1ccccc1O[C@@H]1O[C@H](CO)[C@@H](O)[C@H](O)[C@H]1O [Salicin]	1.143 ± 0.00076
C=C1CC[C@@H]2[C@](C)(CO)[C@H](O)CC[C@@]2(C)[C@@H]1C/C=C1/C(=O)OC[C@H]1O [Andrographolide]	0.99 ± 0.041
CC(=O)NS(=O)(=O)c1ccc(N)cc1 [Sulfacetamide Sodium]	0.956 ± 0.037
Cc1cn([C@H]2C=C[C@@H](CO)O2)c(=O)[nH]c1=O [Stavudine (d4T)]	1.233 ± 0.0061
CCN(CC)CC(=O)Nc1c(C)cccc1C [Lidocaine]	1.18 ± 0.0049
CC(C=CC(=O)NO)=CC(C)C(=O)c1ccc(N(C)C)cc1 (configuration not stated) [Trichostatin A (TSA)]	0.0876 ± 0.0041
CC(=O)OCC(=O)[C@@]12OC(C)(C)O[C@@H]1C[C@H]1[C@@H]3C[C@H](F)C4=CC(=O)C=C[C@]4(C)[C@@]3(F)[C@@H](O)C[C@@]12C [Fluocinonide]	0.9937 ± 0.0069
c1ccc2c(CC3=NCCN3)cccc2c1 [Naphazoline HCl]	1.13 ± 0.013
CN(c1ccccc1CNc1nc(Nc2ccc3c(c2)CC(=O)N3)ncc1C(F)(F)F)S(C)(=O)=O	0.9039 ± 0.0075
Cc1cnc(-c2cc(N3CCN(C(=O)CCS(C)(=O)=O)CC3)ncc2Cl)c(C)c1	1.14 ± 0.036
CC(C)(CO)c1cc2cc(NC(=O)C3(c4ccc5c(c4)OC(F)(F)O5)CC3)c(F)cc2n1C[C@@H](O)CO	1.11 ± 0.019
Cc1c(CN2CCN(C(=O)[C@H](C)O)CC2)sc2c(N3CCOCC3)nc(-c3cnc(N)nc3)nc12	0.317 ± 0.021
CN1CCc2c(c3ccccc3n2Cc2ccc(C(=O)NO)cc2)C1 [Tubastatin A HCl]	0.9558 ± 0.0063
CN1CCc2c(c3ccccc3n2Cc2ccc(C(=O)NO)cc2)C1 [Tubastatin A]	1.14 ± 0.023
CN(C)C(=O)c1ccc(S(=O)(=O)c2ccc(NC(=O)C(C)(O)C(F)(F)F)c(Cl)c2)cc1 (configuration not stated)	1.19 ± 0.024
C=CC(C)(C)c1cc(C=CC(=O)c2ccc(O)cc2)c(OC)cc1O [Licochalcone A]	1.08 ± 0.023
CC[C@@H]1C(=O)OC[C@@H]1Cc1cncn1C [Pilocarpine HCl]	1.13 ± 0.025
